This is an account of results in ChEMBL document CHEMBL4888484, “Replenishing the malaria drug discovery pipeline: Screening and hit evaluation of the MMV Hit Generation Library 1 (HGL1) against asexual blood stage Plasmodium falciparum ,using a nano luciferase reporter read-out” (2022).

The campaign covered roughly 150,000 compounds. About 540 (0.36%) showed an effect of 50% or more. This is one part of the list.

This assay deals with Plasmodium falciparum. Briefly: Primary screen in NF54 nanoGlo assay, in single point, at 2uM, 72h; a lower Z score goes with more inhibition. It is filed as functional, Erythrocyte. The settings on record: timepoint 72 hour.
As to `CN(C(=O)OC(C)(C)C)[C@H]1CCN(CC2CCOCC2)C1`, the % Inhibition (as a rule, the drop in the measured response relative to a control, in per cent) is reported as -9% and the Z score was 0.83.

Regarding `CN(CC(=O)N1CCC(c2ccccc2)=N1)C1Cc2ccccc2C1`, the “% Inhibition” value is given as -1% and the Z score came to 0.17.

As to `O=C(NCCCOCC1CC1)NC1CCCCCC1CO` (stereo not given), the “% Inhibition” value is on record as 1% and the Z score is listed as -0.13.

In the case of `CCOC(=O)c1cccnc1N(C)C[C@H]1CCCCO1`, the “% Inhibition” value is reported as -8% and the Z score is reported as 0.77.

As to `O=C(c1ccc2c(c1)CCC2)N1CCN(CCO)CC1`, the “% Inhibition” value is -14% and the Z score is 1.78.

For the molecule `O=C(O)C1CCC(=O)N(CCc2cccnc2)C1c1ccc(F)cc1` (stereo not given), the “% Inhibition” value is on record as -1% and the Z score is listed as 0.1.

Consider `CN1CC[C@H](N(C)c2nc(-c3ccccc3)no2)C1=O`, for which the “% Inhibition” value is on record as -3% and the Z score is on record as 0.64.

In the case of `O=C1Nc2ccccc2Oc2cc(NC3CCCC3)c(S(=O)(=O)N3CCCC3)cc21`, the “% Inhibition” value is -9% and the Z score worked out at 1.33.

Regarding `O=c1ccc(F)cn1Cc1nccn1C(F)F`, the “% Inhibition” value is given as -12% and the Z score amounted to 1.22.

Regarding `CCN1CCN(c2c(CN(Cc3ccccc3C(F)(F)F)CC(C)C)c(C)nn2-c2cccc(F)c2)CC1`, the “% Inhibition” value is 4% and the Z score is listed as -0.54.

Turning to `O=S(=O)(Nc1cnn([C@H]2CCOC2)c1)c1cc(F)ccc1F`, the “% Inhibition” value is reported as 11% and the Z score is on record as -1.42.

Regarding `Cc1ccsc1-c1nccn1CC[C@H]1CCCN1C`, the “% Inhibition” value is 8% and the Z score is -1.37.

`COCc1nccc(NC(=O)N2CCC(c3ccon3)CC2)n1`: the “% Inhibition” value is -11% and the Z score is recorded as 2.02.

Turning to `Cc1ccc(OCCCOc2ccc(CO)nc2)cc1C`, the “% Inhibition” value stood at 36% and the Z score is given as -4.1.

Turning to `Cc1oc(C2CCC2)nc1C(=O)NCCCN(C)c1ccccc1`, the “% Inhibition” value is -14% and the Z score was 1.8.

Regarding `CCN(CC)CCNC(=O)C1CCN(c2nc3cccnc3s2)CC1`, the “% Inhibition” value is -6% and the Z score was found to be 0.54.

For the molecule `O[C@H]1[C@H](NCc2ccccc2)[C@@H](C2CCCCC2)C[C@H]1O`, the “% Inhibition” value worked out at 18% and the Z score was -2.12.

As to `CS(=O)(=O)N(CCN1CCCCC1)C1CN(C(=O)COc2ccccc2)C1`, the “% Inhibition” value is listed as -5% and the Z score came out at 0.63.

As to `O=S(=O)(N1CCCCC1)N1[C@@H]2CC[C@H]1C[C@@H](O)C2`, the “% Inhibition” value was -9% and the Z score stood at 1.37.

For the molecule `CC[C@](C)(OC)c1noc(-c2cc3c(s2)CCOC3)n1`, the “% Inhibition” value was -11% and the Z score stood at 1.46.

For the molecule `O=C(CN1C(=O)c2ccccc2Oc2ncccc21)NCCCO`, the “% Inhibition” value is given as -14% and the Z score stood at 1.48.

For the molecule `C=CCOC1CCN(C(=O)CCN2CCOC2=O)CC1`, the “% Inhibition” value was -4% and the Z score came to 0.57.

As for `COC(C(=O)N(C)CC1CCCN1C)c1ccc(O)cc1` (stereo not given), the “% Inhibition” value is given as -12% and the Z score amounted to 2.36.

Consider `CC[C@@H]1C[C@H]1NC(=O)CS(C)(=O)=O`, for which the “% Inhibition” value amounted to 18% and the Z score was -2.08.

Consider `COc1ccc(C(N)=O)cc1C[C@H]1CCCCO1`, for which the “% Inhibition” value is -9% and the Z score was determined as 1.07.

`CCc1nc(C)c(C(=O)N2CCC[C@H](c3ccccc3C)C2)o1`: the “% Inhibition” value is 7% and the Z score was -0.97.

As to `CCc1csc(-c2ccc(N3CCN(C(=O)c4nccc5ccccc45)CC3)nc2)n1`, the “% Inhibition” value is given as 8% and the Z score is listed as -1.3.

Take `CC(C)(C)OC(=O)[C@H]1CCCN(c2ncnc(N)c2Cl)C1`: the “% Inhibition” value is -4% and the Z score came out at 0.52.

With `O=C(NCCOCCc1ccccc1)Nc1cccnc1`, the “% Inhibition” value was -25% and the Z score was found to be 2.3.

On to `CC(C)NS(=O)(=O)NC1(c2nc3ccccc3s2)COC1`, for which the “% Inhibition” value was -11% and the Z score is reported as 1.41.

`CCc1ccc(NC(=O)[C@H]2CCCN(c3c(-c4ccccc4)c4cc(Cl)ccc4[nH]c3=O)C2)cc1`: the “% Inhibition” value is on record as -6% and the Z score was 0.86.

In the case of `Cc1cc(N[C@@H](Cc2ccccc2)C(=O)N2CCOCC2)nc(C2CC2)n1`, the “% Inhibition” value was found to be 10% and the Z score was -0.98.

Regarding `Cc1cc(C(=O)NC[C@H]2CCCN2c2ccccc2)no1`, the “% Inhibition” value turned out to be 0% and the Z score stood at 0.02.

On to `CC(C)O[C@H]1C[C@@H](NC(=O)c2ccc3[nH]c(=O)[nH]c3c2)C1`, for which the “% Inhibition” value was -15% and the Z score turned out to be 2.74.

Consider `CCOCCNC(=O)Nc1ccnn1C[C@@H]1CC=CCC1`, for which the “% Inhibition” value is 5% and the Z score is -0.7.

For the molecule `NC(=O)C1CCN(C(=O)c2ccc3nc(-c4ccc(F)cc4)c(-c4ccc(F)cc4)nc3c2)CC1`, the “% Inhibition” value is 1% and the Z score is -0.14.

As for `C[C@@H](CCc1ccccc1)NC(=O)NCCCC(N)=O`, the “% Inhibition” value is -4% and the Z score was found to be 0.74.

Consider `CCCOc1ccc(N2C(=O)C3ON(c4ccccc4)C(c4ccc(OC(=O)c5ccccc5)c(OC)c4)C3C2=O)cc1` (stereo not given), for which the “% Inhibition” value is given as 1% and the Z score is reported as -0.25.

Regarding `CC(C)c1noc([C@@H]2CCCCN2C(=O)c2cnc(-c3ccccc3)nc2O)n1`, the “% Inhibition” value was 0% and the Z score was -0.01.

In the case of `CNC(=O)CCc1nc(COC)nn1-c1cccc(C)n1`, the “% Inhibition” value was -6% and the Z score is 1.

As to `Cc1cc(C)c2nonc2c1S(=O)(=O)N(CCOc1ccccc1)C[C@H]1CCCO1`, the “% Inhibition” value was -16% and the Z score came to 2.11.

As for `Cc1ccc(-c2noc(Cn3nc(-c4ccc(Br)cc4)ccc3=O)n2)cc1C`, the “% Inhibition” value is -8% and the Z score is listed as 1.11.

As for `N=C1NC(=O)O[C@@]12CCCc1ccccc12`, the “% Inhibition” value is 1% and the Z score is -0.28.

As for `CC(C)N1C[C@@H](O)C[C@H]1c1nnc2n1CCN(Cc1cn(C)c3ccccc13)C2`, the “% Inhibition” value is listed as 5% and the Z score is -0.81.

Turning to `O=C(NC(C1CC1)C1CC1)c1ccncc1`, the “% Inhibition” value worked out at 4% and the Z score was -0.8.

As to `O=C1CCc2cc(NC(=O)C(=O)NCCc3ccc4c(c3)OCO4)ccc2N1`, the “% Inhibition” value was -11% and the Z score is listed as 2.09.

In the case of `OCCN(CCO)Cc1cc(F)ccc1F`, the “% Inhibition” value is listed as -12% and the Z score is reported as 2.35.

On to `Cc1cn(-c2c(F)cccc2F)nc1C(=O)N1CC[C@](C)(O)C1`, for which the “% Inhibition” value was -9% and the Z score was 0.93.

As to `Cc1nccc(NC(=O)C2C3CCC(O3)C2C(F)(F)F)n1` (stereo not given), the “% Inhibition” value is 2% and the Z score is -0.26.

With `O=C(Cc1cccnc1)N[C@H]1CCC[C@H]1Cc1ccc(F)cc1`, the “% Inhibition” value is -3% and the Z score turned out to be 0.53.

For `N#CC1(c2ccccn2)CCCN(CC2CCC3(CCCC3)O2)C1` (stereo not given), the “% Inhibition” value is given as -3% and the Z score is listed as 0.63.

Regarding `FC(F)c1[nH]nc2c1CN(c1nc(CC3CC3)ns1)CC2`, the “% Inhibition” value is -6% and the Z score worked out at 1.03.

In the case of `CONC(=O)COc1ccc(Cl)cc1`, the “% Inhibition” value worked out at 6% and the Z score is -0.86.

Take `CCC(=O)NCc1ccc(-c2noc(CCC3CCCC3)n2)s1`: the “% Inhibition” value amounted to 10% and the Z score is -1.19.

For the molecule `COC(=O)c1c(NC(=O)c2ccccc2)c2cc(NCc3cc(OC)ccc3F)cnc2n1C[C@H]1CCCO1`, the “% Inhibition” value came out at 0% and the Z score was 0.
